In the supplement of paper PMC10441789:
The other results are listed elsewhere or left out. Antibody binding of pooled human sera (four to six donors per pool; dilution not stated) to peptides of the Trypanosoma cruzi antigen TSSA on microarrays. Quantile-normalised fluorescence in arbitrary units, mean of duplicate arrays; higher = more binding. No active / inactive call. The uninfected pools are read here as the healthy donors of the same country. The strongest signals lie near the top of the scale (about 60,000).

Experiments:
Assay in all cases: antibody binding signal (normalised fluorescence) (arbitrary fluorescence units); higher = stronger serum antibody binding to peptide
[1] = tested on: pooled sera of chronic Chagas disease patients, Argentina
Experimental: (§1)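 Microarray of 15-residue peptides over residues 30-55 of Trypanosoma cruzi TSSAII, each with 1 to 10 substitutions at naturally variable positions, probed with one serum pool per country.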

[2] = tested on: pooled sera of chronic Chagas disease patients, Bolivia
Experimental: as §1

[3] = tested on: pooled sera of chronic Chagas disease patients, Brazil
Experimental: as §1

[4] = tested on: pooled sera of chronic Chagas disease patients, Colombia
Experimental: as §1

[5] = tested on: pooled sera of chronic Chagas disease patients, Mexico
Experimental: as §1

[6] = tested on: pooled sera of chronic Chagas disease patients, USA
Experimental: as §1

[7] = tested on: pooled sera of uninfected people, Argentina
Experimental: as §1

[8] = tested on: pooled sera of uninfected people, Bolivia
Experimental: as §1

[9] = tested on: pooled sera of uninfected people, Brazil
Experimental: as §1

[10] = tested on: pooled sera of uninfected people, Mexico
Experimental: as §1

[11] = tested on: pooled sera of uninfected people, USA
Experimental: as §1

Sequence	antibody binding signal [1]	antibody binding signal [2]	antibody binding signal [3]	antibody binding signal [4]	antibody binding signal [5]	antibody binding signal [6]	antibody binding signal [7]	antibody binding signal [8]	antibody binding signal [9]	antibody binding signal [10]	antibody binding signal [11]
TDKKAAAGETPSQPG	1770	2760	32400	323	217	2630	122	333	175	211	159
KEKKPATGEAPSPPG	39300	10400	41300	157	216	29200	804	177	150	101	388
EKKTATGEAPSQSGA	12500	20000	17500	330	769	20400	271	807	171	274	735
SGKENKAAAGGAPSP	3630	1040	18600	8890	4440	20900	6100	1500	117	199	170
TEKKPATGGTPSQPG	1860	632	2520	3380	821	1460	406	502	1060	635	848
PPSGKDNKTATGGAP	639	259	2490	2110	3780	2710	653	417	162	95.5	296
TDKKPATGETPSPPG	29000	26300	29700	444	352	23600	127	430	234	1640	1270
SGTDNKPATGGTPSP	4690	2040	44000	4030	599	630	217	898	485	491	246
KDNKTATGEAPSQPG	17200	20800	41900	2270	302	22700	480	197	273	98.7	185
KKAATGEAPSPSGAS	6280	8720	18200	196	203	17100	511	177	109	96.7	275
TENKAAAGGAPSPPG	36400	367	1490	2880	345	850	229	188	223	135	335
TEKKTAAGGAPSQPG	648	999	1650	9320	791	1470	221	168	214	446	293
TPPSGTDNKTAAGGA	25800	36500	43900	586	7440	8000	2070	589	1950	337	653
PSGKENKPATGGAPS	8590	4820	11000	9210	9350	9440	7440	4180	168	565	293
STPPSGKDKKAATGE	25000	1190	4630	284	45700	1780	458	464	111	103	111
GKDKKTAAGGAPSQS	258	244	183	2530	393	381	128	118	109	124	110
TPPSGTEKKAATGET	28300	13400	22400	468	2190	1380	657	210	284	175	116
GTDNKTATGEAPSPP	14600	30400	30200	275	318	21200	132	558	995	110	117
ENKAAAGGAPSQSGA	418	1300	1990	3820	433	643	311	218	255	160	329
EKKTAAGGTPSQPGA	441	479	424	9710	430	1770	292	642	822	512	752
GKDKKTATGETPSQS	728	253	625	1450	1190	4920	160	110	108	78	98.3
GTENKAATGGTPSPS	35700	1580	1120	1840	2290	1020	183	478	432	154	118
TISTPPSGKDNKAAA	7310	2450	3280	593	16400	2220	1180	469	445	134	454
TENKAATGETPSQPG	31700	5570	41300	221	149	13200	120	402	258	131	316

Sequence	antibody binding signal [1]	antibody binding signal [2]	antibody binding signal [3]	antibody binding signal [4]	antibody binding signal [5]	antibody binding signal [6]	antibody binding signal [7]	antibody binding signal [8]	antibody binding signal [9]	antibody binding signal [10]	antibody binding signal [11]
KDKKTAAGGTPSPPG	248	211	197	2850	205	1490	98.7	101	239	80.7	124
SSTPPSGKDNKTAAG	33500	9700	5770	1240	36000	3580	403	514	373	144	260
ENKAATGEAPSPSGA	25700	43900	37200	213	141	28900	200	157	155	101	104
ISTPPSGKEKKTAAG	12400	210	344	967	8400	727	292	248	92.3	101	199
PPSGKDNKTATGETP	1520	3160	2140	1140	8310	5520	365	479	241	112	188
GKDNKTATGEAPSPS	17000	12800	15000	8690	6760	21300	337	254	169	101	159
KENKAAAGGAPSPPG	172	207	600	1320	169	667	225	104	113	80.1	132
PSGKEKKTAAGEAPS	8640	1770	8150	9160	10600	9130	659	494	95.9	128	114
DKKTATGEAPSPSGA	10200	14000	8990	202	631	19900	284	100	166	238	170
PSGTDNKTAAGEAPS	15400	11600	41400	450	389	6950	150	663	876	125	191
PPSGTENKTATGGTP	41100	46100	48200	583	4810	13100	1160	550	594	899	745
GTENKPAAGETPSPS	46800	3430	15600	687	1730	5390	364	1250	291	391	1580
PPSGTENKPAAGETP	45300	41300	48300	319	3610	21000	5090	1110	440	516	761
TEKKAAAGGTPSQSG	784	206	214	6530	634	2240	181	110	1740	194	229
KEKKPATGGAPSQSG	530	310	268	322	374	634	223	194	106	144	299
ENKAAAGEAPSQPGA	7800	29900	44800	334	232	14800	137	263	183	180	175
NKPATGEAPSQSGAS	26000	47900	47500	220	184	40400	1050	1270	536	424	957
STPPSGKDKKAAAGE	11100	1490	4100	438	35600	1790	423	353	99.1	94	85.1
TENKTATGETPSPPG	19100	1470	3760	156	149	6230	132	235	208	157	1450
PSGTDKKAATGEAPS	21700	22300	26300	3190	1190	25800	418	594	255	1350	295
KDKKAAAGETPSQPG	259	248	19200	203	165	541	107	113	102	83.4	91.6
GTENKTAAGGTPSPP	32600	538	578	4490	843	1640	318	290	687	2010	153
TPPSGKENKTATGGT	13900	1340	3060	925	2790	3340	2110	1300	393	317	243
SGTENKAAAGEAPSQ	40500	21200	25800	534	506	12600	446	396	116	111	154

Sequence	antibody binding signal [1]	antibody binding signal [2]	antibody binding signal [3]	antibody binding signal [4]	antibody binding signal [5]	antibody binding signal [6]	antibody binding signal [7]	antibody binding signal [8]	antibody binding signal [9]	antibody binding signal [10]	antibody binding signal [11]
SGKDKKPAAGGTPSQ	606	274	403	3030	1180	1130	112	71.5	585	87	90.8
KDNKTAAGGAPSQSG	414	208	293	3090	247	276	298	140	193	76.8	120
GTENKPATGEAPSPS	47100	46700	49100	1700	3350	39800	1030	1430	475	226	151
EKKPAAGETPSQSGA	840	314	7650	454	284	1250	117	939	202	277	948
DNKPAAGETPSQPGA	1480	4480	38800	299	207	4800	129	703	353	341	142
SGKEKKPATGETPSP	30600	3050	21300	1610	3510	21000	323	417	126	617	496
GTEKKPAAGEAPSPS	2080	542	6470	995	1340	14300	153	1070	1750	382	896
TDNKPATGETPSQSG	38900	30200	35600	288	245	28000	290	472	380	2010	125
TDKKPAAGGTPSPSG	494	182	527	5350	284	1010	93.1	818	2310	93.8	274
GKEKKAATGETPSPP	3630	434	5320	1210	3280	8330	196	115	82.5	89	213
GTDKKAAAGEAPSPP	559	328	10800	2990	839	12000	140	264	102	249	151
PSGKDNKPAAGETPS	4000	1500	11200	4950	5180	8690	834	1480	285	327	160
KEKKPAAGGTPSQSG	218	229	177	1160	170	369	134	100	626	79.4	319
KAATGEAPSPSGASS	20200	18200	27700	168	2400	20500	235	108	121	89	208
GKDKKAATGGAPSQS	911	290	327	1090	2000	1140	220	124	154	103	166
SGTDKKPATGETPSP	31200	27200	34600	4190	328	24400	182	467	249	3450	578
TPPSGTENKAAAGEA	45400	39600	44200	226	2840	17900	2200	366	273	229	256
TENKPATGGTPSPSG	47000	1480	2810	237	1170	445	369	733	352	323	214
GKEKKAATGETPSQP	6120	464	28600	3550	7520	9940	238	106	289	92.3	100
KDNKAATGEAPSQSG	23800	23200	35200	178	9910	24000	466	819	189	120	110
SGKENKTAAGGTPSP	3800	732	20000	10000	4540	20700	4660	946	335	683	237
KDKKAAAGETPSQSG	162	272	916	191	152	415	124	89.6	86.5	89.5	107
SGKEKKAAAGGTPSP	2980	250	1710	4990	4890	5360	124	88.5	533	95.2	121
